Measured values taken from PubChem BioAssay AID1346428 (National Center for Advancing Translational Sciences (NCATS), 2018).
The whole screen tested about 48,000 compounds, of which about 1,200 (2.5%) were called active. Inconclusive results (about 2%) are left out.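 The calls were made as follows: active = activation of at least 60% and not above a set upper limit (about 1 call in 100 departs from these limits); inconclusive = activation of 40% to 60%, or above that upper limit; inactive = activation under 40%.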 This is one part of the list.

target: Probable G-protein coupled receptor 32 (Homo sapiens) (UniProt O75388); experiment: qHTS for Agonists of Human Resolvin D1 Receptor DRV1; details: CHO-K1 GPR32 beta-arrestin PathHunter luminescence, 90 min; at 76.9 µM; hits give high values; zero percent set by DMSO-only wells; also: 0% is about no effect
Chain of UniProt O75388 (O75388 whole entry, looked up): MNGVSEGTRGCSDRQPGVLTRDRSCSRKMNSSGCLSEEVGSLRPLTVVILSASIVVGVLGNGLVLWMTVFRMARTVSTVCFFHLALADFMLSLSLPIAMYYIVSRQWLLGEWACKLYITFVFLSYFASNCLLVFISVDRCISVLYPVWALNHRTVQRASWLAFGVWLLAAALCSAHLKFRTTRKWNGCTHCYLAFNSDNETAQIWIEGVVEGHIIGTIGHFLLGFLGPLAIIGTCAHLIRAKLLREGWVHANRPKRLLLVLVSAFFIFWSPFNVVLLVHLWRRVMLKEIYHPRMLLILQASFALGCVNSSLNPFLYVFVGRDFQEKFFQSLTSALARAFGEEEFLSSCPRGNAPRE
Procedure, shortened: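 Using DMSO wells as EC0, agonist-induced signal was taken as chemiluminescence from beta-Gal reconstituted upon beta-arrestin recruitment to GPR32 in CHO-K1 cells after 90 min compound treatment.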

activation, inactive:
COc1ccc(N2CCN(CC(O)COc3ccc(C)c(C)c3)CC2)cc1 (stereo not drawn) -23.2%
CCn1c(=O)c(=O)n(CC)c2cc(N3CCCCC3)c(NC(=O)c3cccc(OC)c3)cc21 1.54%
CCOC(=O)c1cccc(NC(=O)N2Cc3ccccc3Oc3ncccc32)c1 -19%
Cc1oc(-c2ccc(C(=O)N(C)Cc3ccccc3)cc2)nc1CN1CCc2ccccc21 -6.13%
COc1ccc(-n2c(=O)c3c4c(sc3n(Cc3ccccc3)c2=O)CCC4)c(OC)c1 -22%
CCCCN(CCCC)S(=O)(=O)c1ccc(NC(=O)c2c(-c3ccccc3)noc2C)cc1 -7.11%
CCOC(=O)c1ccc(-c2ccc(/C=C(\C#N)C(=O)Nc3cccc(C)c3)o2)cc1 -2.25%
CC1(C)OC(=O)NC1=O -13.5%
Cc1ccc(NC(=O)CC2Sc3ccccc3NC2=O)c(C)c1 (stereo not drawn) -3.55%
CCN(C(=O)c1cc(S(=O)(=O)N2CCCCC2)c[nH]1)c1ccc(OC)cc1 1.93%
Cc1cc(C)cc(OCCOCCn2c(-c3ccc(Cl)cc3)nc3ccccc3c2=O)c1 -5.74%
C=Cc1ccc(CSc2nc(-c3ccc(Cl)cc3)nc3c2Cc2c(CO)cnc(C)c2O3)cc1 39.3%
CCOc1ccc(-n2c(-c3ccc(OC)cc3)cc3c2CC(C)(C)CC3=O)cc1 -31.1%
Cc1nc2sc(C)c(C)n2c(=O)c1S(=O)(=O)NCCc1ccc(Cl)cc1 -7.47%
Cc1ccc(CN(Cc2cccn2-c2nnc(N3CCCC3=O)s2)C(=O)Nc2cc(C)cc(C)c2)cc1 -13.9%
CN1C(=O)c2ccccc2Sc2ccc(NC(=O)NCc3ccccc3Br)cc21 -1.64%
O=C(C1CCCN(S(=O)(=O)c2cccs2)C1)N1CCN(c2ccccc2F)CC1 (stereo not drawn) 6.6%
COc1cccc(CN2C(=O)C3(SCC(=O)N3c3ccc(F)cc3)c3ccccc32)c1 (stereo not drawn) -7.23%
COc1ccc(-c2nc3c(c(SCC(=O)Nc4cc(C)cc(C)c4)n2)Cc2c(CO)cnc(C)c2O3)cc1 3.86%
Cc1ccc(CN(Cc2ccco2)C(=O)c2ccccc2Cl)o1 -25.1%
C#C[C@]1(O)CC[C@H]2[C@@H]3CCC4=Cc5oncc5CC4(C)[C@H]3CCC21C (stereo partly drawn) 3.5%
O=C(NCc1cccc(Cl)c1)c1ccc2c(c1)nc1n2CCOC1 -10.2%
CC(=O)c1ccc(NC(=O)c2cn(C)c(=O)c3ccccc23)cc1 -15.1%
